We go through 19 variants from the RNAGym collection of RNA variant scans (doi:10.1073/pnas.2313332121).

Variants at the background level are over-represented here.

B1: TPR 5TU (parent)
chain: GGAUCUUCUCGAUCUAACAAAAAAGACAAAUCUGCCACAAAGCUUGAGAGCAUCUUCGGAUGCAGAGGCGGCAGCCUUCGGUGGCGCGAUAGCGCCAACGUUCUCAACUAUGACACGCAAAACGCGUGCUCCGUUGAAUGGAGUUUAUCAUG

Variants of B1 are the subject of this data set. Description: polymerase ribozyme fitness, log enrichment relative to wild type (log ratio); higher = more active; in vitro selection for triplet polymerase activity. The gist of the method: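 Streptavidin-bead capture of gel-excised extended constructs, followed by RT-PCR, closed a single triplicate in vitro selection round. That round began by annealing PCR-built, transcribed mutant libraries of each subunit of a heterodimeric triplet polymerase ribozyme with a biotinylated primer, the partner subunit and triplets, then incubating them frozen at −7 °C. After Illumina sequencing of inputs and outputs, genotypes needed ≥10 input reads and ≥1 read per output. Fitness is the base-2 logarithm of genotype enrichment over wild-type enrichment, using inverse-variance-weighted replicate averages.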
On to GGAUCUUCUCGAUCUAACAAAAAAGACAAAUCUGCCACAAAGCGUGAGAGCAUCUUCGGAUGCAAAGGCGGCAGCCUUCGGUGACGCGAUAGCGCCAACGUUCUCAACUAUGACACGCAAAACGCGUGCUCCGUUGAAUGGAGUUUAUCAUG [U44G G65A G84A], for which the “polymerase ribozyme fitness (log ratio)” value was no more than -4.2.

Turning to GGAUCUUCUCGAUCUAACAAAAAAGACAAAUCUGCCACAAAGCCUGAGAGCAUCUUCGGAUGCAGAGGCGGCAGCUUUCGGUGGCGAGAUAGCGCCAACGUUCUCAACUAUGAUACGGAAAACGCGUGCUCCGUUGAAUGGUGUUUAUCAUG [U44C C76U C87A C114U C118G A142U], the “polymerase ribozyme fitness (log ratio)” value was no more than -4.2.

For the variant GGAUCUUCUCGAUCUAACAAAAAAGACAAAUCUGCCACAAAGCGUGAGAGCGUCUUCGGAUGCAGAGGCGGCAGCCUUCGGUGGCGCGAUUGCGCCAACGUUCUCAACUAUGACACGCAAAACGCGUGCUCCGUUGAAUGGAGUUUACCAUG [U44G A52G A91U U148C], the “polymerase ribozyme fitness (log ratio)” value was no more than -4.2.

GGAUCUUCUCGAUCUAACAAAAAAGACAAAUCUGCCACAAAGCGUGAGACCAUCUUCGGAUGCAGAGGCGGCAGCCUUCGGUGGCGCGAUAACGCCAACGUUCUCAACUAUGACACGCAAAACGCGUGCUCCGUUGAAUGGAGUUUAUCAUG [U44G G50C G92A]: the “polymerase ribozyme fitness (log ratio)” value is no more than -4.2.

GGAUCUUCUCGAUCUAACAAAAAAGACAAAUCUGCCACAAAGCGUGAGAGCCUCUUCGGAUGCUGCGGCGGCAGCCUUCGGUGGCGCGAUAGCGCCAACGUUCUCAACUAUGACACACAAAACGCGUGCUCCGUUGAAUGGAGUUUAUCAUG [U44G A52C A64U A66C G117A]: the “polymerase ribozyme fitness (log ratio)” value was no more than -4.2.

For GGAUCUUCUCGAUCUAACAAAAAAGACAAAUCUGCCACAAAGCGUGAGACCAUCUUCGGAUGCAGAGGCGGCAGCCUUCGGUGGCGCGAUAGCGCCAAUGUUCUCAACUAUGACACGCAAAACGCGUGCUCCGUCGAAUGGAGUUUAUCAUC [U44G G50C C99U U135C G152C], the “polymerase ribozyme fitness (log ratio)” value is no more than -4.2.

On to GGAUCUUCUCGAUCUAACAAAAAAGACAAAUCUGCCACAAAGCCUGAGAGCAUCUUCCGAUGCAGAGGCGGCAGCCUUCGGAGGCGCGAUAGCGCCAACGUUCUCAACUAAGACACGCAAAACGCGUGCUCCGUUGAAUGGAGUUUAUCAUG [U44C G58C U82A U111A], for which the “polymerase ribozyme fitness (log ratio)” value was no more than -4.2.

Take GGAUCUUCUCGAUCUAACAAAAAAGACAAAUCUGCCACAAAGCGUGAGAGCAGCUUCGGAUGCAGAGGCGGCAGCCUUCGGUGGCGUGAUAGCGCCAACGUUCUCAACUAUGACACGCAAAACGCGUGCUCCGUAGAAUGGAGUUUAUCAUG [U44G U53G C87U U135A]: the “polymerase ribozyme fitness (log ratio)” value was no more than -4.2.

Take GGAUCUUCUCGAUCUAACAAAAAAGACAAAUCUGCCACAAAGCGUGAGAACAUCGUCGGAUGCAGAGGCGGCAGCCUUCGGUGGCGCGAUAGCGCCAACGGUCUCAACUAUGACACGCAAAACGCUUGCUCCGAUGAAUGGAGUUUAUCAUG [U44G G50A U55G U101G G126U U134A]: the “polymerase ribozyme fitness (log ratio)” value was no more than -4.2.

Regarding GGAUCUUCUCGAUCUAACAAAAAAGACAAAUCUGCCACAAAGCGUGAGAGCAUCUUCGGAUGCAGAGGCGGCAGCCUUCGGUGGCGCUAUAGCGCCAACGUUCUCAACUAUGACACGCAAAACGCGUUCUCCAUUGAAUGGAGUUUAUCUUG [U44G G88U G128U G133A A150U], the “polymerase ribozyme fitness (log ratio)” value is no more than -4.2.

With GGAUCUUCUCGAUCUAACAAAAAAGACAAAUCUGCCACAAAGCGUGAGCGCAUCUUCGGAUGCAGAGGCGGCAGCCUUCGGUGGCGCGAUAGUGCCAACGUUCUCAACUAUGACACGCAAAACGUGUGCUCCGUUGAAUGGAGUUUAUCUUG [U44G A49C C93U C125U A150U], the “polymerase ribozyme fitness (log ratio)” value is no more than -4.2.

Turning to GGAUCUUCUCGAUCUAACAAAAAAGACAAAUCUGCCACAAAGCGUGAGAGCAUCUUCGGAUGCAGAGGCGGCAGCCUUCGGUGGCGCGAUAGCGCCAACGUUCUCAACUAUGACACGCAAAACGCGUGCUCCGUUGAAUGAAGUUUAUCAUG [U44G G141A], the “polymerase ribozyme fitness (log ratio)” value is -4.12.

Take GGAUCUUCUCGAUCUAACAAAAAAGACAAAUCUGCCACAAAGCGUAAGAGCAUCUUCGGAUGCAGAGGCGGCAGCCUUCGGUGGCGCGAUAACGCCAACGUUCUCAACUAUGACACGCAAAUCGCGUGCUCCGUUGAAUGGAGUUUGUCAUG [U44G G46A G92A A122U A147G]: the “polymerase ribozyme fitness (log ratio)” value is no more than -4.2.

As for GGAUCUUCUCGAUCUAACAAAAAAGACAAAUCUGCCACAAAGCGUGAGAGCAACUUCGGAUGCAGAGGCGGCAGCCUUCGGUGGCGGGAUAGCGCCAACGUUCUCAACUGUGACACGCAAAACGCGUGCUCCGUUGAAUGUAGUUUAUCAUG [U44G U53A C87G A110G G141U], the “polymerase ribozyme fitness (log ratio)” value is no more than -4.2.

GGAUCUUCUCGAUCUAACAAAAAAGACAAAUCUGCCACAAAGCGUGAGAGCAUCUUCGGAUGCAGAGGCGGCAGCCUUCGGUGGAGCGAUAGCGCCAACGUUCUCAACUAUGACACGCAUAACGCGUGCUCCGUUGAAUGGAGUCUAUCAUG [U44G C85A A120U U145C]: the “polymerase ribozyme fitness (log ratio)” value is no more than -4.2.

As to GGAUCUUCUCGAUCUAACAAAAAAGACAAAUCUGCCACAAAGCGUGAGAGCAUCUUCGGAUGCAGAGGCGGCAGCCUUCGGUGGCGCAAUAGCGCCAACGUUCUCGACUAUGACACCCAAAACGCGUGCUCCGUUGAAUGCAGAUUAUCAUG [U44G G88A A106G G117C G141C U144A], the “polymerase ribozyme fitness (log ratio)” value was no more than -4.2.

As for GGAUCUUCUCGAUCUAACAAAAAAGACAAAUCUGCCACAAAGCGUGAGCGCAUCUUCGGAUCCAGAGGCGGCAGCCUUCGGUGGCGCGAUAGCGCCAACGUUCUCAACUAUGACACGCAAAACGCGUGCUCCGUUGAAUGGAGUUUAACAUG [U44G A49C G62C U148A], the “polymerase ribozyme fitness (log ratio)” value was no more than -4.2.

Consider GGAUCUUCUCGAUCUAACAAAAAAGACAAAUCUGCCACAAAGCGUGAGACCAUCUUCGGAUGCAGAGGCGGCAGCCUUCGGUGGCGCGAUAGCGCCAACGUUCUCAACUAUGACACGCAAAACGAGGGCUCCGUUGAAUGGUGUUUAUCAUG [U44G G50C C125A U127G A142U], for which the “polymerase ribozyme fitness (log ratio)” value was no more than -4.2.

In the case of GGAUCUUCUCGAUCUAACAAAAAAGACAAAUCUGCCACAAAGCGUGAGAGCAUCUUCGGAUGCAGAGGCGGCUGCCUUCGGUGGAGCGAUAGCGCCAAUGUUCUCAACUAUGACACGCAAAACGCGUGCUCCGUUGAAUGGCGUUUAUCAUG [U44G A73U C85A C99U A142C], the “polymerase ribozyme fitness (log ratio)” value was no more than -4.2.
